Data: PubChem BioAssay AID1030 (National Center for Advancing Translational Sciences (NCATS), 2008)
Values joined by “and” are separate entries in the source; they are usually repeats but may differ in a detail not shown here. Identical values can stand only once. Hit rate of the full screen: of about 220,000 compounds, about 16,000 (7.3%) were called active. The inconclusive results got no clear call from the source; some entries with a clear call stand among them for comparison. Calls come from the whole dose curve; as a rule, active = well fitted inhibition curve with a large enough effect (not every such curve was filed as active); inconclusive = small, poorly fitted or top-dose-only effect, or another doubt; inactive = no such curve, though single readings can be large or run the other way. No potency is given beside an inconclusive call; the fits are too rough.

These molecules were tested against Aldehyde dehydrogenase 1A1 (Homo sapiens) (UniProt P00352) (assay: qHTS Assay for Inhibitors of Aldehyde Dehydrogenase 1 (ALDH1A1)). Details: Purified ALDH1A1, NADH fluorescence, propionaldehyde substrate; series mostly up to 75.3 µM.
Sequence of UniProt P00352 (P00352 whole entry, looked up): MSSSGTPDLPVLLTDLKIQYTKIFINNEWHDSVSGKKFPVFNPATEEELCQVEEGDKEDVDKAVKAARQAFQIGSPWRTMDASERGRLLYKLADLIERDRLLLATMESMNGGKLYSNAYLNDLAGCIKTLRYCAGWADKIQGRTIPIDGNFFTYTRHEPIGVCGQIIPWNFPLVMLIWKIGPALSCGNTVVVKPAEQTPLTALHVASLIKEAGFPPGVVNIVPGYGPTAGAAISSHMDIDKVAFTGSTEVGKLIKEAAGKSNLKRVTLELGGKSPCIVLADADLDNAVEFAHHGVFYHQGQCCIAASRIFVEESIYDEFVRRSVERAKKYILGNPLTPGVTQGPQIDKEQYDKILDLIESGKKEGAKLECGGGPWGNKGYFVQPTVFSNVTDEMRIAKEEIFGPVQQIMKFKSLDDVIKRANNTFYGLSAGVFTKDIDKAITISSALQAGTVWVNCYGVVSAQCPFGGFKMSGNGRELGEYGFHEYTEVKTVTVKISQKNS
Potency is the fitted concentration of half-maximal effect; tags give direction and shape of the fitted curve.

Row | SMILES | Potency
1 | CCCCCCc1cc2cc(S(=O)(=O)c3ccc(C)cc3)c(=O)oc2cc1O | inconclusive [inhibitor, partial curve]
2 | FC(F)Sc1nc(-c2ccccc2)c(-c2ccccc2)n1C(F)F | inconclusive [inhibitor, single point]
3 | COc1ccccc1-n1c(SCC(N)=O)nc2c(c1=O)SCC2 | inconclusive [inhibitor, single point]
4 | Cc1nnc2n(-c3ccccc3)c(=O)c3c4c(sc3n12)CCCC4 | inactive
5 | Cc1nc2ccc(S(=O)(=O)NCC(=O)NC(C)c3ccccc3)cc2s1 (centres undefined) | inactive
6 | Cc1ccnc(NS(=O)(=O)Cc2ccccc2)c1 | inconclusive [inhibitor, single point]
7 | CCC(=O)Nc1c(-c2ccc(OC)cc2)c(=O)c2ccccc2n1C | inconclusive [inhibitor, partial curve]
8 | Cc1ccc(SCC(=O)NCCCN2CCOCC2)cc1 | inactive
9 | COc1cccc(-c2nccc(NCCc3c[nH]c4ccc(OC)cc34)n2)c1 | inactive
10 | COC(=O)c1ccc(N2OC3(C)C=CC2CC3)cc1 (centres undefined) | inconclusive [inhibitor, single point]
11 | CC(Cc1ccc(O)c(O)c1)C(C)Cc1ccc(O)c(O)c1 (centres undefined) | active: 10 µM and active: 28.2 µM
12 | COC(=O)C1CC1C(NC(=O)[C@@H]1CCCN1)c1ccccc1 (some centres undefined) | inactive
13 | CCc1ccc(S(=O)(=O)NCCc2csc(-c3cccnc3)n2)s1 | inconclusive [inhibitor, partial curve]
14 | N=C1c2c(cc(=O)n3c2[nH]c2ccccc23)CN1CCN1CCOCC1 | inconclusive [inhibitor, partial curve]
15 | CCc1cc2cc(C)cc(C)c2nc1SCC(=O)N1CCN(C(=O)c2ccco2)CC1 | inconclusive [inhibitor, single point]
16 | O=Cc1cccn1-c1sc2c(c1C(=O)O)CCCC2 | inactive
17 | CCN(CC)S(=O)(=O)c1cccc(C(=O)Nc2nc3cc4c(cc3s2)OCCO4)c1 | inconclusive [inhibitor, single point]
18 | CC(=O)N1CCCc2cc(S(=O)(=O)N3CCc4ccccc4C3)ccc21 | inconclusive [inhibitor, full curve]
19 | Cc1c(C(=O)O)sc2nc(SCC(=O)Nc3ccc(S(=O)(=O)NC(C)(C)C)cc3)[nH]c(=O)c12 | inconclusive [inhibitor, single point]
20 | COc1cc(CNc2cccc(F)c2)cc(Br)c1O | inconclusive [inhibitor, single point]
21 | Cc1ccc(NCc2nnc(SCC(N)=O)n2CCc2ccccc2)cc1 | inconclusive [inhibitor, single point]
22 | COc1ccc(N2CCN(C(=O)/C(C#N)=C/c3ccccc3)CC2)cc1 | inconclusive [inhibitor, single point]
23 | CC1(C)CC(=O)CC(C2(O)C(=O)N(Cc3ccccc3)c3ccccc32)O1 (centres undefined) | active: 0.0631 µM
24 | Cc1[nH]c(=S)[nH]c(=O)c1CCOc1ccccc1 | inconclusive [inhibitor, single point]
25 | CC(C)C1C(=O)NC(=S)N1S(=O)(=O)c1ccc(C(C)(C)C)cc1 (centres undefined) | active: 11.2 µM

Row | SMILES | Potency
26 | CSc1nnc(Cc2sc(-c3ccccc3)nc2-c2ccccc2)o1 | inconclusive [inhibitor, partial curve]
27 | Cn1cccc1C(=O)NC(=O)COC(=O)c1cc([N+](=O)[O-])ccc1Cl | inconclusive [inhibitor, single point]
28 | O=C(COc1ccccc1[N+](=O)[O-])NCCC1=CCCCC1 | inconclusive [inhibitor, single point]
29 | O=C(N/N=C/c1cccnc1)c1cc2c(ccc3ccccc32)o1 | inconclusive [inhibitor, partial curve]
30 | COc1ccccc1NC(=S)NCc1cccs1 | inactive
31 | NC(=O)C1CCN(C(=O)COc2cccc3cccnc23)CC1 | inactive
32 | CS(=O)(=O)Nc1cccc(C2=NN(C(=O)c3ccccc3Cl)C(c3ccccc3O)C2)c1 (centres undefined) | inconclusive [inhibitor, single point]
33 | CCN(CC)c1ncccc1C(=O)NCc1cccs1 | inactive
34 | COCc1ccc(C(=O)N2CCCC(C(=O)c3cccc(C(F)(F)F)c3)C2)o1 (centres undefined) | inconclusive [inhibitor, single point]
35 | Cc1cc(NC(=O)c2ccco2)ncc1NC(=O)CCc1ccccc1 | inconclusive [inhibitor, single point]
36 | COc1ccc(OCC(=O)OCC(=O)NCc2ccco2)cc1 | inactive
37 | O=C(O)/C=C/C(=O)N1CCN(C(c2ccccc2)c2ccccc2)CC1 | inconclusive [inhibitor, single point]
38 | COc1ccc2oc(-c3ccccc3[N+](=O)[O-])cc(=O)c2c1 | inconclusive [inhibitor, full curve]
39 | CC1CCN(Cc2ccc(NC(=O)CC3Oc4ccccc4NC3=O)cc2)CC1 (centres undefined) | inactive
40 | COC(=O)c1sc(=S)n(-c2ccc(Cl)cc2)c1C | inactive
41 | CC1=C(n2nnc([N+](=O)[O-])n2)C(c2cccnc2)C(C#N)=C(N)O1 (centres undefined) | active: 1.12 µM
42 | CCC(C)[C@H](Nc1nc(-c2ccccc2)nc2c1oc1ccccc12)C(=O)O (some centres undefined) | active: 0.794 µM
43 | N/C(Cc1ccc(Cl)cc1)=N\OC(=O)Cc1ccc([N+](=O)[O-])cc1 | inconclusive [inhibitor, single point]
44 | CCN(CCO)Cc1cc(=O)oc2cc3c(cc12)CCC3 | inconclusive [inhibitor, single point]
45 | CS(=O)(=O)Nc1ccc(C2=NN(S(=O)(=O)c3ccccc3)C(c3cccs3)C2)cc1 (centres undefined) | inconclusive [inhibitor, single point]
46 | O=C1NC(c2ccccc2)Nc2c1sc(=S)n2-c1ccccc1 (centres undefined) | active: 31.6 µM
47 | CCCc1cc(C(=O)Cc2nc3ccccc3s2)c(O)cc1O | inconclusive [inhibitor, partial curve]
48 | CC(C)OCCCNC(=O)CNC(=O)c1ccc(Cl)c(Cl)c1 | inactive
49 | COC(=O)Cn1cc(/C=C(/C#N)C(=O)N2CCOCC2)c2ccccc21 | inactive
50 | CC(=O)N1CCC(c2c[nH]c3ccccc23)CC1 | inconclusive [inhibitor, single point]

Row | SMILES | Potency
51 | Cc1nnc2c(Oc3ccccc3)nc3ccccc3n12 | inconclusive [inhibitor, single point]
52 | COC(=O)c1cc(C#N)c(NCc2ccccc2)nc1C | inconclusive [inhibitor, partial curve]
53 | O=C(/C=C/c1cccc([N+](=O)[O-])c1)N1CCN(S(=O)(=O)c2cccs2)CC1 | inconclusive [inhibitor, single point]
54 | COC(=O)c1ccc(N2C(=O)CC(N(C)Cc3ccccc3)C2=O)cc1 (centres undefined) | active: 8.91 µM
55 | O=C(CN1CCCCCC1)NCCN1C(=O)S/C(=C\c2ccccc2Cl)C1=O | inactive
56 | Brc1ccccc1-c1nnc(CSc2nncn2-c2ccccc2)o1 | inactive
57 | COC(=O)C1=C(C)OC(N)=C(C#N)C1c1cc2cccc(C)c2nc1Cl (centres undefined) | active: 28.2 µM
58 | COc1cc(OC)c(/C=N/NC(=O)c2ccc(NC(C)=O)cc2)cc1Br | inconclusive [inhibitor, single point]
59 | COc1ccccc1C(=O)Nc1ccc2nc(SCC(=O)N(C)C)sc2c1 | inactive
60 | Cc1sc2ncnc(OCC(=O)N3CC(=O)Nc4ccccc43)c2c1C | inconclusive [inhibitor, single point]
61 | Clc1cccc(N/N=C/c2ccc(N3CCOCC3)cc2)c1 | inconclusive [inhibitor, single point]
62 | COc1ccccc1N(CC(=O)NCc1cccnc1)S(C)(=O)=O | inconclusive [inhibitor, single point]
63 | O=C(O)c1ccc(COc2ccccc2/C=C2\NC(=O)N(Cc3ccc(F)cc3)C2=O)cc1 | inactive
64 | COc1cc(/C=N/NC(=S)NC2CC3CCC2C3)ccc1O (centres undefined) | active: 17.8 µM
65 | CC(=O)OCC1=C(C(=O)O)N2C(=O)C(NC(=O)c3ccc(COc4cccc(Cl)c4Cl)o3)C2SC1 (centres undefined) | inconclusive [inhibitor, single point]
66 | O=C(COC(=O)C1CC2C=CC1C2)Nc1ccccc1F (centres undefined) | active: 12.6 µM
67 | Cn1c(=O)c(=O)n(C)c2cc([N+](=O)[O-])c([N+](=O)[O-])cc21 | inactive
68 | COCCOC(=O)C1=C(C)N(Cc2ccccc2)C(=O)NC1c1cccc(OC)c1OC (centres undefined) | inactive
69 | O=C(CN1C(=O)c2ccccc2S1(=O)=O)Nc1ccccc1C(=O)NCc1ccco1 | inconclusive [inhibitor, single point]
70 | O=C(C1CCC(CNS(=O)(=O)c2cccc3nsnc23)CC1)N1CC=C(c2ccccc2)CC1 (centres undefined) | active: 17.8 µM
71 | Cc1nc2nc[nH]n2c(=O)c1NC(=O)c1c(-c2ccccc2Cl)noc1C | inconclusive [inhibitor, single point]
72 | Nn1c(SCC(=O)Nc2ccc(F)cc2)nnc1-c1ccccn1 | inconclusive [inhibitor, single point]
73 | Cc1cc(/C=N/n2cnnc2)c(C)n1-c1cc(Cl)ccc1Cl | active: 22.4 µM
74 | NC(=O)NC(=O)COC(=O)[C@H](Cc1ccccc1)NC(=O)c1cccs1 | inconclusive [inhibitor, partial curve]
